From the RNAGym collection of RNA variant scans (doi:10.1073/pnas.2313332121)
Variants at the floor of the assay are shown more often than the library holds them.

B1: TPR 5TU (parent)
chain: GGAUCUUCUCGAUCUAACAAAAAAGACAAAUCUGCCACAAAGCUUGAGAGCAUCUUCGGAUGCAGAGGCGGCAGCCUUCGGUGGCGCGAUAGCGCCAACGUUCUCAACUAUGACACGCAAAACGCGUGCUCCGUUGAAUGGAGUUUAUCAUG

Variants of: B1
Assay: polymerase ribozyme fitness, log enrichment relative to wild type (log ratio); higher = more active; in vitro selection for triplet polymerase activity
Summary of the method: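 Streptavidin-bead capture of gel-excised extended constructs, followed by RT-PCR, closed a single triplicate in vitro selection round. That round began by annealing PCR-built, transcribed mutant libraries of each subunit of a heterodimeric triplet polymerase ribozyme with a biotinylated primer, the partner subunit and triplets, then incubating them frozen at −7 °C. After Illumina sequencing of inputs and outputs, genotypes needed ≥10 input reads and ≥1 read per output. Fitness is the base-2 logarithm of genotype enrichment over wild-type enrichment, using inverse-variance-weighted replicate averages.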

| Variant | polymerase ribozyme fitness (log ratio) |
| --- | --- |
| GGAUCUUCUCCAUCUAACAAAAAAGACAAAUCUGCCACAACGCUUGAGAGCAUCUUCGGAUGCAGAGGCGGCAGCCUUCGGUGGCGCGAUAGCGUCAAGGUUCUCAACUAUGAAACGCAAAACGCGUGCUCCGUUGAAUGGGGUUUAUCAUG [G11C A41C C95U C99G C114A A142G] | ≤ -4.2 |
| GGAUCUUCUCCAUCUAACAAAAAAGACAAAUCUGCCACAACACUUGAGAGCAUCUUCGGAUGCAGAGGCGGCAGCGUUCGGCGGCCCGAUAGCGUCAACGUUCUCAACUAUGACACGCAAAACGUGUGCUCCGUUGAAUGGAGUUUAUCAUG [G11C A41C G42A C76G U82C G86C C95U C125U] | ≤ -4.2 |
| GGAUCUUCUCCAUCUAACAAAAAAGACAAAUCUGCCACAAUGCUUGAGAGCAUCUUCGGAUGCAGAGGCGGCAGCCUUCGGUGGCGCGAUAGAGUCAACGUUCUCAACUAUGACACGCAAAACGCGUGCUCCGUUGAAUUGAGUUUUUCAUG [G11C A41U C93A C95U G140U A147U] | ≤ -4.2 |
| GGAUCUUCUCCAUCUAACAAAAAAGACAAAUCUGCCACAAAGCUUGAGCGCAUCUUCGGAUGCAGAGGCGGCAGGCUUCGGUGGGGCGAUAGCGCCAACGUUCUCAACUAUGACACGCAAAACGCGUGCUCCGUUGAAUGGAGUUUAUCAUG [G11C A49C C75G C85G] | ≤ -4.2 |
| GGAUCUUCUCCAUCUAACAAAAAAGACAAAUCUGCCACAAAGCUUGAGCGCAGCUUCGGAUGCAGAGGCGGCAGCCUUCGGUGGCGCGAUAGCGCCAACGUUCUCAACUAUGACACGCAAAACGCGUGCUCCGUUGAAUGAAGUUUAUCAUG [G11C A49C U53G G141A] | ≤ -4.2 |
| GGAUCUUCUCCAUCUAACAAAAAAGACAAAUCUGCCACAAAGCUUGAGAGCCUCUUCGGAUGCAGAGGCGGCAGCCUUCGGUGGCGCGAUAGCGCCAUCGUUCUCAACUAUGACACGCAAAACGCGUGCUCCGUUGAAGCGAGUUUAUCAUG [G11C A52C A98U U139G G140C] | ≤ -4.2 |
| GGAUCUUCUCCAUCUAACAAAAAAGACAAAUCUGCCACAAAGCUUGAGAGCGUCUUCGGAUGCAGAGGCGGCAGCCUUCGGUGGCGCGAUAGCGCCAACGUUCUCAACUAUGACAUGCAAAACGCGUGCUCCGUAGAAUUGAGUUUAUCAUG [G11C A52G C116U U135A G140U] | ≤ -4.2 |
| GGAUCUUCUCCAUCUAACAAAAAAGACAAAUCUGCCACAAAGCUUGAGAGCAUCUUCGGAUGCGGAGGCGGCAGCCUUCGGUGGCGCGGUAGCGCCAACGUUCUCAACUACGACACGCAAAACGCGUGCUCCGUUGAAUGGAGUUAAUCAUG [G11C A64G A89G U111C U146A] | ≤ -4.2 |
| GGAUCUUCUCCAUCUAACAAAAAAGACAAAUCUGCCACAAAGCUUGAGAGCAUCUUCGGAUGCAGAGGCGGCAGCCUUCGGUGGCGCGAUUGCGCCAACGUUCUCAACUAUGACACGCAAAACGCGUGCUCCGUUGAAUGGAGUUUAUCAUG [G11C A91U] | -4.11 |
| GGAUCUUCUCCAUGUAACAAAAAAGUCAAAUCUGCCACAAAGCUUGAGAGCAUCUUCGGAUGCAGAGGCGGCAGCCUUCGGUGGCGCGAUAGCGCCAACGUUCUGAACUAUGACACGCAAAACGCGUGCUCCGGUGAAUGGAGUUUAUCAUG [G11C C14G A26U C105G U134G] | ≤ -4.2 |
| GGAUCUUCUCCAUGUAACAAAAAAGACAAAUCUGCCACAAAGCUUGAGAGCAUCUUCGGAUGCAGAGGCGGCAGCCUUCGGUGGCGAGAUAGCGCCAACGUUCUCAACUAUGACACGCAACACGCGUGCUCCGUUGAAUGGAGAUUAUCAUG [G11C C14G C87A A121C U144A] | ≤ -4.2 |
| GGAUCUUCUCCAUGUAACAAAAAAGACAAAUCUGCCACAAAGCUUGAGAGCAUCUUCGGAUGCAGAGGCGGCAGCCUUCGGUGGCGCGAUAGUGCCAACGUUCUCAACUAUGACACGCAAAACGAGUGCUCCGUUGAAUGGAGUUUAUCAUG [G11C C14G C93U C125A] | ≤ -4.2 |
| GGAUCUUCUCCAUGUAACAAAAAAGACAAAUCUGCCACAAAGCAUGAGAGCAUCUUCGGAUGCAGAGGCGGCAGCCUUCAGUGGUGCGAUGGCGCCAACGUUCUCAACUAUGACACGCAAAACGCGUGCUCCGUUGAAUGGAGUUUAUCAUG [G11C C14G U44A G80A C85U A91G] | ≤ -4.2 |
| GGAUCUUCUCCAUUUAUCAAAAAAGACAAAUCUGCCACAAAGCUUGAGAGCAUCUUCGGAUGCAGAGGCGGCGGCCUUCGGUGGCGAGAUAGCGCCAACGUUCUCAACUAUGACACGCAAAACGCGUGCUCCGUUGAUUGGAGUUUAUCAUG [G11C C14U A17U A73G C87A A138U] | ≤ -4.2 |
| GGAUCUUCUCCAUUUAACAAAAAAGACAAAUCUGCCACAAAGCUUGAGAGCAUCGUCGGAUGCAGAGGCGGCAGCCUUCGUUGCCACUAUAGCGCCAACGUUCUCAACUAUGACACGCAAUACGCGUGCUCCGUGGAAUGGAGUUUAUCAUG [G11C C14U U55G G81U G84C G86A G88U A121U U135G] | ≤ -4.2 |
| GGAUCUUCUCCAUCUAACAAAAAAGAGAAAUCUGCCACAAAGCUUGAGAGCAUCAUCGGAAGCAGAGGCGGCAGCCUUCGGGGGCGCGAUAGUGCCAACGUUCUCAACUAUGACACGCAAAACGCGUGCUCCGUUGAAUGGAGUUUAUCAUG [G11C C27G U55A U61A U82G C93U] | ≤ -4.2 |
| GGAUCUUCUCCAUCUAACAAAAAAGACAAAUGUCCCACAAAGCUUGAGAGCAUCUUCGGAUGCAGAGGCGGCAGCCUUCGGUGGCGCCAUAGCGCCAACGUUCUCGAAUUUGACACGCAAAACGCGUGCUCCGUUGAAUGGAGUUUAUGAUG [G11C C32G G34C G88C A106G C108A A110U C149G] | ≤ -4.2 |
| GGAUCUUCUCCAUCUAACAAAAAAGACAAAUGUGCCACAAAGCUUGAGAACAUCUUCGGAUGCAGAGGCGGCAGCCUUCGGUGGCGCGAUGGCGCCAACGUUCUCAACUAUGACACGCAAAACGCGUGCUCCGUUGAAUGGAGUUUAUCAUG [G11C C32G G50A A91G] | ≤ -4.2 |
| GGAUCUUCUCCAUCUAACAAAAAAGACAAAUGUGCCACAAAGCUUGAGAACAUCUUCGGAUGCAGAGGUGGCAGCCUUCGGUGGCGCGAUAGGGCCAACGUGCUCAACUAUGACACGCAAAACGCGUGCUCCGUUGAAUGGAGUUUAUCAUG [G11C C32G G50A C69U C93G U102G] | ≤ -4.2 |
